Biological target: T1, recombinant human TL1A-his (processed secreted human TL1A with an N-terminal his-tag) (human, UniProt O95150 72-251)
T1 construct: also called recombinant histidine tagged human TL1A; histidine-tagged human TL1A
T1 sequence: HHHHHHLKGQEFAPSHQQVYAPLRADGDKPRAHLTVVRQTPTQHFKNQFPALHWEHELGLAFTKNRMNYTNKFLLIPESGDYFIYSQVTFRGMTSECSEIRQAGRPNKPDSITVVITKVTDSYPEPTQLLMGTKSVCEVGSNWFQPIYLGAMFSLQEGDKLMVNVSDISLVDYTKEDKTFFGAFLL
Test: SPR (BIAcore 2000), antibody captured on protein-A, his-tagged human TL1A as analyte
Procedure: Kinetic binding affinity constants (KD) were measured on protein-A captured antibody using recombinant histidine tagged TL1A as analyte. Measurements were conducted on a BIAcore 2000 (GE Healthcare—BIAcore, GE Healthcare Europe GmbH, Glattbrugg, Switzerland) at room temperature, and analyzed with the BiaEvaluation software (BIAcore; v4.1. GE Healthcare Europe GmbH).
Following this capture step, the recombinant histidine tagged human TL1A was injected at different concentrations (1.25 to 125 nM) on the flow-path 1 and 2 (flow-path 1 being used as reference) at a 30 μl/min flow rate. After each binding event, surface was regenerated with glycine buffer pH 1.5 injected for 20 sec (30 μL/min).
Measurements (sensorgram: fc2-fc1) were best fitted with a 1:1 analyte model without mass transfer. To account for the experimental variations in protein-A captured antibody at the beginning of each measurement, the Rmax value was set to local in all fits. Dissociation times were of at least 300-600 seconds. Measurements were performed in duplicate and included zero-concentration samples for referencing. The Chi2 value represents the sum of squared differences between the experimental data and reference data at each point; while the plots of residuals indicate the difference between the experimental and reference data for each point in the fit. […]

B1: VH5/VL1 humanized 5G6 antibody (IGHG1) (antibody, human IgG1, kappa)
heavy: QVQLVQSGAEVKKPGASVKVSCKASGYTFTSSWMHWARQAPGQGLEWMGEIHPNSGGTNYAQKFQGRVTMTVDTSISTAYMELSRLRSDDTAVYYCARGDYYGYVSWFAYWGQGTLVTVSS[human IgG1 constant region not written out]
light: DIQMTQSPSSLSASVGDRVTITCQASQNINVLLNWYQQKPGKAPKLLIYKASNLHTGVPSRFSGSGSGTDFTFTISSLQPEDIATYYCQQGQSYPYTFGQGTKLEIKRTVAAPSVFIFPPSDEQLKSGTASVVCLLNNFYPREAKVQWKVDNALQSGNSQESVTEQDSKDSTYSLSSTLTLSKADYEKHKVYACEVTHQGLSSPVTKSFNRGEC
  Kd: 0.259 nM

From patent US20140308271A1 (GLENMARK PHARMACEUTICALS S A, published 2014)
